{"source": "the supplement of paper PMC9446081", "note": "Among all 39,000 compounds or so, about 220 (0.56%) showed activity. The list shows a part of the results.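 Further: static incubation at 37 °C against the wild-type strain, values averaged over two biological replicates.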", "data": [{"system": "Escherichia coli K-12 BW25113", "experiment": "relative growth (OD600 normalised to plate interquartile mean) (fraction); higher = less growth inhibition, active = 0.2 or less", "conditions": "50 µM; LB; incubation time: overnight (16-24 h)", "values": [{"smiles": "CN(C)CCO[C@@H]1C[C@@H]2CN(S(=O)(=O)c3cn(C)cn3)CCN2C1", "relative growth": "inactive: 1.05"}, {"smiles": "COc1ccc(NC(=O)N(C)C[C@@H]2OCc3ccccc3-c3c(n(C)c4ccccc34)C(=O)N([C@@H](C)CO)C[C@@H]2C)cc1", "relative growth": "inactive: 1.01"}, {"smiles": "C[C@@H]1CN([C@@H](C)CO)C(=O)c2cc(NC(=O)C3CCCCC3)ccc2O[C@@H](C)CCCCO[C@@H]1CN(C)C(=O)Nc1ccc2c(c1)OCO2", "relative growth": "inactive: 0.99"}, {"smiles": "COc1ccc(S(=O)(=O)Nc2ccc3c(c2)CC(=O)N([C@H](C)CO)C[C@@H](C)[C@H](CN(C)S(=O)(=O)c2ccccc2)O3)cc1", "relative growth": "inactive: 1.04"}, {"smiles": "COc1ccc(NC(=O)Nc2cccc3c2O[C@@H](CN(C)S(C)(=O)=O)[C@@H](C)CN([C@H](C)CO)C3=O)cc1", "relative growth": "inactive: 1.01"}, {"smiles": "C=CCOC(=O)[C@@H]1[C@H]2C(=O)O[C@H](c3ccccc3)[C@H](c3ccccc3)N2[C@H](c2ccc(OCCOC(=O)[C@H]3C[C@H]4C(=O)NCC(=O)N4[C@H]3c3ccc(O)cc3)cc2)[C@@]12C(=O)Nc1ccccc12", "relative growth": "inactive: 1.06"}, {"smiles": "NCCCC(N)C(=O)O.NCCCC(N)C(=O)O.O=C(O)CCC(=O)C(=O)O", "relative growth": "inactive: 1.09"}, {"smiles": "C[C@H]1CN([C@@H](C)CO)C(=O)c2cc(C#CCN(C)C)cnc2O[C@@H]1CN(C)S(=O)(=O)c1cn(C)cn1", "relative growth": "inactive: 0.983"}, {"smiles": "C[C@@H]1CN([C@H](C)CO)C(=O)c2cccc(NC(=O)Nc3ccc(C(F)(F)F)cc3)c2O[C@H]1CN(C)Cc1ccc(Cl)c(Cl)c1", "relative growth": "inactive: 0.982"}, {"smiles": "O=C(C[C@H]1C[C@@H]2c3cc(NC(=O)NC4CCCC4)ccc3O[C@@H]2[C@@H](CO)O1)NCCN1CCCCC1", "relative growth": "inactive: 0.944"}, {"smiles": "C[C@H](CO)N1C[C@H](C)[C@@H](CN(C)Cc2ccccc2)Oc2ccc(NC(=O)Nc3ccc(C(F)(F)F)cc3)cc2C1=O", "relative growth": "inactive: 0.915"}, {"smiles": "OC[C@@H]1CC[C@@H]2O[C@H](CCc3ccc(C#Cc4ccccc4)cc3)[C@H](n3cc(-c4ccccc4)nn3)C[C@@H]2O1", "relative growth": "inactive: 1.07"}, {"smiles": "C[C@H]1CN([C@@H](C)CO)C(=O)c2cc(NC(=O)CCCCCC(=O)Nc3ccccc3N)ccc2O[C@H]1CN(C)Cc1ccc(Oc2ccccc2)cc1", "relative growth": "inactive: 0.992"}, {"smiles": "C#Cc1ccc(C(=O)NO)cc1", "relative growth": "inactive: 0.918"}, {"smiles": "C[C@@H]1CN([C@@H](C)CO)C(=O)Cc2cc(NS(=O)(=O)c3ccc(F)cc3)ccc2O[C@@H]1CN(C)Cc1ccncc1", "relative growth": "inactive: 0.983"}, {"smiles": "C[C@H]1CN([C@@H](C)CO)C(=O)c2cc(NC(=O)Nc3cccc4ccccc34)ccc2O[C@@H]1CN(C)C(=O)Nc1cccc2ccccc12", "relative growth": "inactive: 1.04"}, {"smiles": "COCC#Cc1ccc([C@@H]2[C@H](CO)N3C(=O)CN(C(=O)c4ccncc4)C[C@@H]23)cc1", "relative growth": "inactive: 0.998"}, {"smiles": "COc1ccccc1OCC(O)COC(N)=O", "note": "(stereo not drawn)", "relative growth": "inactive: 0.939"}, {"smiles": "CC(C)[C@H](NC(=O)[C@H](C)N(C)C)C(=O)N1CC[C@@H]2Oc3ccc(cc3)/C=C\\NC(=O)[C@H](Cc3ccccc3)NC(=O)[C@H]21", "relative growth": "inactive: 0.997"}, {"smiles": "COc1ccccc1C#Cc1ccc2c(c1)O[C@@H](CN(C)Cc1cccnc1)[C@H](C)CN([C@@H](C)CO)S2(=O)=O", "relative growth": "inactive: 1.02"}, {"smiles": "C[C@H]1CCCCO[C@@H](CN(C)C(=O)Nc2cccc3ccccc23)[C@@H](C)CN([C@@H](C)CO)C(=O)c2cc(NC(=O)c3ccncc3)ccc2O1", "relative growth": "inactive: 0.965"}, {"smiles": "C[C@H](CO)N1C[C@H](C)[C@@H](CN(C)Cc2ccncc2)OCCCC[C@H](C)Oc2ccc(NC(=O)Nc3cccc4ccccc34)cc2C1=O", "relative growth": "inactive: 0.983"}, {"smiles": "C/C=C/c1ccc2c(c1)O[C@@H](CN(C)Cc1ccc(C(=O)O)cc1)[C@H](C)CN([C@@H](C)CO)S2(=O)=O", "relative growth": "inactive: 1.01"}, {"smiles": "COc1ccccc1C#Cc1ccc2c(c1)O[C@@H](CN(C)Cc1cccnc1)[C@H](C)CN([C@H](C)CO)S2(=O)=O", "relative growth": "inactive: 1.04"}, {"smiles": "NC(=O)c1ccccc1F", "relative growth": "inactive: 1.04"}, {"smiles": "NC(=O)c1ncn([C@@H]2O[C@H](CO)[C@@H](O)[C@H]2O)n1", "relative growth": "inactive: 0.914"}, {"smiles": "C[C@H]1CN([C@@H](C)CO)C(=O)c2cc(Br)cnc2O[C@H]1CN(C)S(=O)(=O)c1ccc(F)cc1", "relative growth": "inactive: 0.988"}, {"smiles": "Cc1noc(C)c1NC(=O)N(C)C[C@@H]1Oc2c(NC(=O)Nc3ccc(C(F)(F)F)cc3)cccc2C(=O)N([C@@H](C)CO)C[C@@H]1C", "relative growth": "inactive: 0.943"}, {"smiles": "COc1ccc(S(=O)(=O)N(C)C[C@@H]2Oc3c(NS(=O)(=O)c4cn(C)cn4)cccc3C(=O)N([C@H](C)CO)C[C@@H]2C)cc1", "relative growth": "inactive: 0.996"}, {"smiles": "Cc1cncc2cccc(S(=O)(=O)N[C@H]3CN[C@@H](COC(=O)NCCOCCOCCN)C3)c12", "relative growth": "inactive: 0.917"}, {"smiles": "COc1ccc(S(=O)(=O)N(C)C[C@H]2OCCCC[C@H](C)Oc3ccc(NS(=O)(=O)c4ccc(Cl)cc4)cc3C(=O)N([C@H](C)CO)C[C@@H]2C)cc1", "relative growth": "inactive: 1.03"}, {"smiles": "C[C@H](CO)N1C[C@H](C)[C@@H](CN(C)C(=O)Nc2ccc(F)cc2)OCc2ccccc2-c2ccccc2C1=O", "relative growth": "inactive: 0.975"}, {"smiles": "O=C(CCCCCCC(=O)N/N=C/c1cccc(B(O)O)c1)NO", "relative growth": "inactive: 1"}, {"smiles": "Cc1ccc(S(=O)(=O)N(C)C[C@@H]2OCCCC[C@H](C)Oc3ccc(NC(=O)NC4CCCCC4)cc3C(=O)N([C@@H](C)CO)C[C@@H]2C)cc1", "relative growth": "inactive: 1.03"}, {"smiles": "C[C@H](CO)N1C[C@H](C)[C@@H](CN(C)Cc2ccc(C(=O)O)cc2)OCCCC[C@H](C)Oc2ccc(NC(=O)Nc3ccc4c(c3)OCO4)cc2C1=O", "relative growth": "inactive: 0.95"}, {"smiles": "C[C@@H]1CCCCO[C@H](CN(C)C(=O)CCC(F)(F)F)[C@H](C)CN([C@H](C)CO)C(=O)c2cc(NC(=O)CCC(F)(F)F)ccc2O1", "relative growth": "inactive: 1.01"}, {"smiles": "C[C@H]1CCCCO[C@H](CN(C)C(=O)Cc2ccccc2)[C@@H](C)CN([C@@H](C)CO)C(=O)c2cc(NC(=O)CCC(F)(F)F)ccc2O1", "relative growth": "inactive: 0.991"}, {"smiles": "C[C@@H]1CN([C@H](C)CO)C(=O)c2cccc(NC(=O)c3cnccn3)c2O[C@@H]1CN(C)S(=O)(=O)c1ccccc1", "relative growth": "inactive: 1.01"}]}]}
